This note sets out measurements from the supplement of paper PMC4723716.

The experiment relates to Plasmodium falciparum NF54 stage V gametocytes. The experiment in a line: viability index relative to DMSO control (fraction); higher = less gametocyte killing. The following applies: 2.5 µM, incubation time: 72 h. In outline: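 In 1,536-well plates, 10 µl of serum-free medium holding P. falciparum NF54 stage V gametocytes (0.75% gametocytemia, 1.25% hematocrit) received compound at 2.5 µM for 72 hr at 37°C in low oxygen. After one to two hours with 3 µl of 2.5 µM MitoTracker Red CMXRos containing 0.13% saponin, red particles of 20–70 µm2 were counted in a single field per well. Viability index is reported as the particle count over the plate mean of wells treated with solvent only.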

The mark [1] stands for this setting: library set: Broad Institute DOS.

± gives the uncertainty stated by the source. Over roughly 9,900 compounds, “viability index relative to DMSO control” has its median near 1; the lowest 2% begin near 0.85. The list shows a part of the results.

As for `C[C@@H](O)C#Cc1ccc([C@H]2[C@@H](CO)N3CCCCN(C(=O)c4ccc5c(c4)OCO5)C[C@H]23)cc1`, the viability index under setting [1] is 1.06 ± 0.063.
Same read-out and setting: the value for `C[C@H](CO)N1C[C@H](C)[C@H](CN(C)C(=O)C2CCCCC2)OCCCC[C@H](C)Oc2ccc(NS(=O)(=O)c3ccccc3)cc2C1=O` was 1.02 ± 0.078; that for `O=C(Cc1ccccc1)N1CC[C@@H]2[C@H](CO)Nc3ccc(C#Cc4cccc(F)c4)cc3[C@@H]21` was 1.07 ± 0.066.
Compound `CO[C@@H](CN(C)S(=O)(=O)c1ccc(C)cc1)[C@H](C)CN(C(=O)Nc1ccccc1F)[C@H](C)CO` had a viability index under setting [1] of 0.978 ± 0.083.
Same read-out and setting: the value for `Cc1noc(C)c1NC(=O)Nc1ccc2c(c1)C(=O)N(C)[C@H]1CC[C@@H](CC(=O)N[C@@H]3CCN(Cc4ccccc4)C3)O[C@@H]1CO2` was 1.08 ± 0.067; that for `CO[C@H]1CN(C)C(=O)c2ccc(NC(=O)NC(C)C)cc2OC[C@H](C)N(Cc2ccc(-c3ccccn3)cc2)C[C@H]1C` was 1.02 ± 0.045.
`COCC(=O)N1[C@H](CO)[C@@H]2c3ccccc3N(C(=O)Nc3ccccc3Cl)C[C@@H]21`: the viability index under setting [1] is 1.01 ± 0.028.
The same measure, in the same setting: to `CCCNC(=O)C[C@H]1CC[C@@H]2[C@H](COC[C@H](O)CN2Cc2ccncc2)O1` belongs 1.03 ± 0.062; to `N#C[C@@H]1[C@H](c2ccc(-c3cccc(F)c3)cc2)[C@@H](CO)N1C(=O)NC1CCCC1`, 0.9966 ± 0.0022.
Still for that read-out and setting: the value for `COc1ccc2c3c([C@@H](CO)N(C[C@]33CN(C3)C(=O)Cc3ccncc3)C(=O)Nc3ccc(F)cc3)n(C)c2c1` was 0.974 ± 0.085; that for `O=C(C[C@@H]1CC[C@H]2[C@@H](COC[C@@H](O)CN2C(=O)c2cc(Cl)cc(Cl)c2)O1)N1CCc2ccccc2C1` was 0.985 ± 0.06; that for `CO[C@H]1CC[C@H]2CCOc3c(C#N)cccc3C(=O)N(C)CCCC(=O)N(C)C[C@H]1O2` was 1.06 ± 0.03.
Under setting [1], `CN1c2ccc(-c3cccc(C#N)c3)cc2[C@H]2[C@H](CCN2C(=O)Cc2ccccn2)[C@H]1CO` returned a viability index of 1.09 ± 0.012.
Regarding `N#C[C@@H]1[C@@H](c2ccccc2C2=CCCCC2)[C@H](CO)N1C(=O)c1ccccn1`, the viability index under setting [1] came to 1.03 ± 0.089.
The same measure, in the same setting: the value for `COCC(=O)NC[C@H]1[C@@H](c2ccccc2)[C@@H](CO)N1C(=O)c1ccccc1` was 0.966 ± 0.074.
Turning to `CC(C)NC(=O)N1[C@H](CO)[C@H]2c3ccccc3NC[C@H]21`, under setting [1], the viability index came to 0.959 ± 0.042.
Compound `CCCN(C)C[C@@H]1Oc2cc(/C=C/c3ccccc3)ccc2S(=O)(=O)N([C@H](C)CO)C[C@@H]1C` displayed a viability index under setting [1] of 0.9475 ± 0.00097.
The same measure, in the same setting: the value for `Cc1noc(C)c1S(=O)(=O)N(C)C[C@H]1OCc2ccccc2-c2c(n(C)c3ccccc23)C(=O)N([C@@H](C)CO)C[C@@H]1C` was 1.01 ± 0.094.
The same measure, in the same setting: the value for `CN1C(=O)c2cc(NC(=O)Cc3cccs3)ccc2OC[C@H]2O[C@H](CC(=O)NCc3ccc(-c4ccccc4)cc3)CC[C@@H]21` was 1.15 ± 0.1; that for `O=C(C[C@@H]1C[C@H]2c3cc(NC(=O)Nc4ccccc4F)ccc3O[C@H]2[C@H](CO)O1)NCc1ccccn1` was 1.07 ± 0.032; that for `CO[C@H](CN(C)C(=O)C1CCOCC1)[C@H](C)CN(C(=O)Nc1ccc(C(F)(F)F)cc1)[C@@H](C)CO` was 0.948 ± 0.098.
Under setting [1], `N#C[C@@H]1[C@H](c2ccccc2)[C@@H](CO)N1S(=O)(=O)c1cccc(F)c1` returned a viability index of 1.02 ± 0.0084.
On the same count and under the same terms, the value for `COc1ccccc1-c1ccccc1[C@H]1[C@@H](C#N)N(C(=O)CN(C)C)[C@@H]1CO` was 1.14 ± 0.11.
`CCS(=O)(=O)N1CC[C@@]2(CC1)CN([C@@H](CO)c1c2c2ccc(OC)cc2n1C)C(=O)c1cccc(F)c1` gave a viability index under setting [1] of 1.02 ± 0.079.
Turning to `O=C(C[C@@H]1C[C@@H]2c3cc(NC(=O)c4ccc5c(c4)OCO5)ccc3O[C@@H]2[C@@H](CO)O1)NCCN1CCCCC1`, the viability index under setting [1] is 1.069 ± 0.0014.
On to `Cc1noc(C)c1S(=O)(=O)N(C)C[C@@H]1OCCCC[C@@H](C)Oc2ccc(NS(=O)(=O)c3cn(C)cn3)cc2C(=O)N([C@H](C)CO)C[C@@H]1C`, for which the viability index under setting [1] was determined as 1.11 ± 0.14.
Under setting [1], `C[C@H](CO)N1C[C@H](C)[C@H](CN(C)C(=O)C2CCOCC2)Oc2ncc(-c3cccc(C#N)c3)cc2C1=O` yielded a viability index of 1.09 ± 0.028.
The compound `CO[C@H]1CN(C)C(=O)c2ccc(NC(=O)Nc3ccccc3)cc2OC[C@@H](C)N(C(=O)CC2CC2)C[C@@H]1C` showed a viability index under setting [1] of 1.07 ± 0.041.
Turning to `CC(=O)N1[C@H](CO)[C@H](c2ccccc2)[C@@H]1CN(C)S(=O)(=O)c1ccccc1`, under setting [1], the viability index worked out at 1 ± 0.033.
On the same count and under the same terms, the value for `CCCNC(=O)C[C@@H]1CC[C@H]2[C@@H](COC[C@@H](O)CN2Cc2ccncc2)O1` was 0.968 ± 0.11; that for `C[C@@H]1CN([C@H](C)CO)C(=O)c2ccccc2-c2ccccc2CO[C@@H]1CN(C)Cc1ccc(Oc2ccccc2)cc1` was 1.028 ± 0.0055.
Still for that read-out and setting: to `COCCNC(=O)C[C@@H]1CC[C@H]2[C@@H](COC[C@H](O)CN2Cc2ccc(Cl)c(Cl)c2)O1` belongs 1.1 ± 0.053; to `COCC(=O)N1C[C@]2(CCN(CC2)C(=O)c2cccnc2)c2c([nH]c3cc(OC)ccc23)[C@H]1CO`, 1.02 ± 0.016.
Same read-out and setting: to `CC(C)C#Cc1ccc([C@@H]2[C@@H](C#N)N(C(=O)c3cccc(F)c3)[C@@H]2CO)cc1` belongs 1.03 ± 0.077.
As to `COc1ccc(S(=O)(=O)Nc2ccc3c(c2)C(=O)N([C@H](C)CO)C[C@H](C)[C@H](CN(C)S(=O)(=O)c2ccc(Cl)cc2)OCCCC[C@H](C)O3)cc1`, the viability index under setting [1] turned out to be 0.9557 ± 0.004.
Regarding `CO[C@H]1CN(C)C(=O)c2ccc(NS(=O)(=O)c3ccc(C)cc3)cc2OC[C@@H](C)N(C)C[C@H]1C`, the viability index under setting [1] stood at 1.05 ± 0.09.
The same measure, in the same setting: the value for `CN1C(=O)c2cc(NS(=O)(=O)c3cccc(F)c3)ccc2OC[C@H]2O[C@H](CC(=O)NCCN3CCCCC3)CC[C@H]21` was 1.04 ± 0.035; that for `C[C@H]1CN([C@@H](C)CO)C(=O)CCCn2nncc2CO[C@H]1CN(C)Cc1ccc2c(c1)OCCN2C` was 1.02 ± 0.04.
Take `COc1cccc(-c2cccc(-c3nc(C(=O)O)cc4c3[C@H](CCO)N(S(=O)C(C)(C)C)C4)c2)c1` (stereo not given in full): the viability index under setting [1] turned out to be 1.03 ± 0.037.
`C[C@@H]1CN([C@H](C)CO)C(=O)c2cc(NS(=O)(=O)c3cccs3)ccc2O[C@@H](C)CCCCO[C@@H]1CN(C)C(=O)c1ccncc1`: the viability index under setting [1] was 1.14 ± 0.16.
In turn, `COCC(=O)N1[C@@H](CO)[C@@H]2c3ccccc3NC[C@@H]21` displayed a viability index under setting [1] of 0.96 ± 0.099.
On to `CCCC(=O)Nc1ccc2c(c1)OC[C@@H](C)N(Cc1cc(F)ccc1F)C[C@@H](C)[C@H](OC)CN(C)C2=O`, for which the viability index (library set: Broad Institute Blood Stage) worked out at 0.883 ± 0.078.
Under setting [1], `N#C[C@H]1[C@H](c2ccccc2C2=CCCC2)[C@@H](CO)N1C(=O)NC1CCCCC1` yielded a viability index of 1.06 ± 0.028.
The same measure, in the same setting: the value for `O=C(C[C@H]1C=C[C@@H](NC(=O)c2ccncc2)[C@H](CO)O1)NCC1CC1` was 1.029 ± 0.0019; that for `Cc1ccc(S(=O)(=O)N(C)C[C@H]2Oc3c(NS(C)(=O)=O)cccc3C(=O)N([C@@H](C)CO)C[C@H]2C)cc1` was 0.901 ± 0.019.
